# Laboratory results reported in the supplement of paper PMC10338343.
# ± gives the standard deviation. This is a selection; strong and weak results do not stand in their true shares.
# Tested on: MIWI (PIWIL1) piRISC loaded with piRNA #1 (30 nt)
# Assay: pre-steady-state target cleavage rate (min^-1); MIWI and MILI are mouse PIWI proteins and EfPiwi is from a freshwater sponge; tags in brackets are library labels; higher = faster piRNA-guided slicing of the target
# Settings: guide: piRNA #1 5'p-UGAGGUAGUAGGUUGUAUAGUAUCCAGAGG; auxiliary factor: 500 nM mouse GTSF1
# Method in brief: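 Reactions were run for 0–8 or 0–960 min at 33 °C in HEPES–potassium acetate buffer, combining 1 nM active affinity-purified piRISC with one synthetic guide, […] transcribed, DNA-blocked target RNA library and, in some cases, 500 nM GTSF1 partner protein. Sequencing of uncleaved targets followed, with normalisation to depth and to weakly complementary targets. Three trials were pooled, k3 was capped at 0.0001 min^-1, and the pre-steady-state cleavage rate was taken from a burst-and-steady-state fit.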
# 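Note: 1 nM active piRISC with 0.1 nM target library at 33 °C single turnover.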
row,Sequence,pre-steady-state target cleavage rate
1,GGUCUGGAUAGUAAACAACCUACUACCUCA,0.676 ± 0.053
2,GGAGACGAUACUAUUCAACCUACUAGCUCA,0.248 ± 0.029
3,CCUCUGGAUACUAUACAACCUCUACCUCA,0.0145 ± 0.0051
4,GGAGACCAUAAUAUACAACCUACUACCUCA,0.791 ± 0.093
5,GGUCUGGAUACUAUUCAACCUAGUACCUCA,0.396 ± 0.067
6,GGAGACCUUACUAUACAAGCUUCUACCUCA,0.0715 ± 0.011
7,GCUCUGGAUACUAUACAUCCAACUACCUCA,0.128 ± 0.021
8,CCUGUGGAUACAAUACAACCUACUACCUCA,1.9 ± 0.13
9,GGAGACCAUACUAUACAACCUUCAACCUCA,0.171 ± 0.017
10,GGUCUGGAUACAAUACAAGCUACUACCUCA,0.775 ± 0.036
11,GGAGAGGAUACUAAUCAACCUACUACCUCA,1.01 ± 0.063
12,GGAGACCUUACUAUACAACCAACUACGUCA,0.0518 ± 0.0063
13,GGAGAGGAUACUUUACAUCCUACUACCUCA,1.11 ± 0.062
14,GGAGAGGAUACGAUACAACCUACUACCUCA,1.16 ± 0.065
15,GGUCUGGAUACUAUACAACCAACUACCUGA,0.056 ± 0.0095
16,GGAGACCUAUGAUUACUAACCUACUACCUCA,< 0.0001
